Results as given in the antibiotic and cytotoxicity screens of Wong et al. (2023).
This is one part of the list.

Key:
[1] = test system: HSkMC (human skeletal muscle cells); assay: cytotoxicity call (relative viability < 0.9); details: 10 µM
[2] = test system: HepG2; assay: cytotoxicity call (relative viability < 0.9); details: 10 µM
[3] = test system: S. aureus RN4220; assay: growth inhibition call (relative growth <= 0.2); details: 50 µM

SMILES | cytotoxicity call [1] | cytotoxicity call [2] | growth inhibition call [3]
Cc1noc(C)c1NC(=O)Nc1cccc2c1O[C@H](CN(C)Cc1ccc(Cl)c(Cl)c1)[C@H](C)CN([C@@H](C)CO)C2=O | inactive | inactive | inactive
C[C@H]1CCCCO[C@H](CN(C)Cc2ccccc2)[C@@H](C)CN([C@@H](C)CO)C(=O)c2cc(NC(=O)Cc3ccccc3)ccc2O1 | inactive | inactive | inactive
C[C@@H]1CCCCO[C@@H](CN(C)CC2CCCCC2)[C@@H](C)CN([C@H](C)CO)C(=O)c2cc(NC(=O)c3ccncc3)ccc2O1 | inactive | inactive | inactive
C[C@H]1CN([C@@H](C)CO)C(=O)c2cccc(NC(=O)C3CCOCC3)c2O[C@@H]1CN(C)Cc1ccc(C(=O)O)cc1 | inactive | inactive | inactive
O=C(O)[C@@H]1[C@@H](CO)[C@@H]2Cn3c(ccc(-c4cncnc4)c3=O)[C@@H]2N1C(=O)C1CCC1 | inactive | inactive | inactive
COc1ccc(NC(=O)N2C[C@H](O)COC[C@H]3O[C@H](CC(=O)NC4Cc5ccccc5C4)CC[C@@H]32)cc1 | inactive | inactive | inactive
C[C@@H]1CN([C@@H](C)CO)C(=O)c2cc(-c3ccc(C(=O)N(C)C)cc3)cnc2O[C@H]1CN(C)C(=O)C1CC1 | inactive | inactive | inactive
C[C@@H]1CN([C@H](C)CO)S(=O)(=O)c2ccc(-c3cccc(F)c3)cc2O[C@H]1CN(C)S(C)(=O)=O | inactive | inactive | inactive
CC(C)=CCC/C(C)=C/C=O | inactive | inactive | inactive
Cc1noc(C)c1NC(=O)N(C)C[C@@H]1Oc2c(NC(=O)C3CCOCC3)cccc2C(=O)N([C@H](C)CO)C[C@H]1C | inactive | inactive | inactive
CCCC(=O)Nc1ccc2c(c1)C(=O)N(C)[C@@H]1CC[C@H](CC(=O)NCCN3CCCCC3)O[C@H]1CO2 | inactive | inactive | inactive
COc1ccc(NC(=O)Nc2ccc3c(c2)C(=O)N([C@H](C)CO)C[C@H](C)[C@@H](CN(C)C(=O)Cc2ccccc2)OCCCC[C@H](C)O3)cc1 | inactive | inactive | inactive
CNC[C@H]1Oc2ccc(NS(=O)(=O)c3cn(C)cn3)cc2CC(=O)N([C@H](C)CO)C[C@@H]1C | inactive | inactive | inactive
Cc1ccc(S(=O)(=O)Nc2ccc3c(c2)C(=O)N([C@H](C)CO)C[C@H](C)[C@@H](CN(C)C(=O)NC2CCCCC2)OCCCC[C@H](C)O3)cc1 | inactive | inactive | inactive
Cc1noc(C)c1NC(=O)Nc1ccc2c(c1)C(=O)N([C@@H](C)CO)C[C@@H](C)[C@@H](CN(C)S(=O)(=O)c1ccc(F)cc1)OCCCC[C@H](C)O2 | inactive | inactive | inactive
Cc1ccc(S(=O)(=O)N(C)C[C@@H]2OCCCC[C@@H](C)Oc3ccc(NC(=O)Nc4cccc5ccccc45)cc3C(=O)N([C@@H](C)CO)C[C@@H]2C)cc1 | inactive | inactive | inactive
C[C@H]1CN([C@@H](C)CO)C(=O)c2cccc(NS(=O)(=O)c3ccccc3)c2O[C@H]1CN(C)Cc1ccc(-c2ccccc2)cc1 | inactive | inactive | inactive
C[C@@H]1CCCCO[C@H](CN(C)S(=O)(=O)c2ccc(Cl)cc2)[C@@H](C)CN([C@@H](C)CO)C(=O)c2cc(NC(=O)C3CCCCC3)ccc2O1 | inactive | inactive | inactive
C[C@@H]1CN([C@H](C)CO)C(=O)c2cc(NC(=O)CCCN(C)C)ccc2O[C@@H]1CN(C)C(=O)Nc1ccc(F)cc1 | inactive | inactive | inactive
C[C@@H]1CCCCO[C@@H](CN(C)S(=O)(=O)c2ccc(Cl)cc2)[C@H](C)CN([C@H](C)CO)C(=O)c2cc(NC(=O)NC3CCCCC3)ccc2O1 | inactive | active | inactive
C[C@@H]1CN([C@H](C)CO)C(=O)c2cccc(NS(C)(=O)=O)c2O[C@H]1CN(C)Cc1ccc(C(=O)Nc2ccccc2N)cc1 | inactive | inactive | inactive
COCCOC(=O)N1C(=O)[C@@]2(c3cc(C#Cc4ccc(OC)cc4)ccc31)[C@H](c1ccccc1OCCO)N1[C@H](c3ccccc3)[C@H](c3ccccc3)OC(=O)[C@H]1[C@@H]2C(=O)N1CCc2cc(OC)c(OC)cc2C1 | inactive | inactive | inactive
Cc1noc(C)c1NC(=O)Nc1ccc2c(c1)CC(=O)N([C@@H](C)CO)C[C@@H](C)[C@H](CN(C)Cc1ccc(C(=O)Nc3ccccc3N)cc1)O2 | inactive | inactive | inactive
